Measured values from article PMC4336329 (PLoS ONE, 2015).
Hit rate of the full screen: of about 310,000 compounds, about 14,000 (4.5%) showed an effect of 50% or more. The effect is printed as a negative number. The list shows a part of the results.

Molecular target: human ether-à-go-go-related gene (hERG) potassium channel (human, UniProt Q12809)
Assay: primary screen, population patch clamp on CHO cells stably expressing hERG
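Further: peak tail current of the secondary pulse compared with the same well before compound.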

Chain of human ether-à-go-go-related gene (hERG) potassium channel (Q12809 whole entry, looked up): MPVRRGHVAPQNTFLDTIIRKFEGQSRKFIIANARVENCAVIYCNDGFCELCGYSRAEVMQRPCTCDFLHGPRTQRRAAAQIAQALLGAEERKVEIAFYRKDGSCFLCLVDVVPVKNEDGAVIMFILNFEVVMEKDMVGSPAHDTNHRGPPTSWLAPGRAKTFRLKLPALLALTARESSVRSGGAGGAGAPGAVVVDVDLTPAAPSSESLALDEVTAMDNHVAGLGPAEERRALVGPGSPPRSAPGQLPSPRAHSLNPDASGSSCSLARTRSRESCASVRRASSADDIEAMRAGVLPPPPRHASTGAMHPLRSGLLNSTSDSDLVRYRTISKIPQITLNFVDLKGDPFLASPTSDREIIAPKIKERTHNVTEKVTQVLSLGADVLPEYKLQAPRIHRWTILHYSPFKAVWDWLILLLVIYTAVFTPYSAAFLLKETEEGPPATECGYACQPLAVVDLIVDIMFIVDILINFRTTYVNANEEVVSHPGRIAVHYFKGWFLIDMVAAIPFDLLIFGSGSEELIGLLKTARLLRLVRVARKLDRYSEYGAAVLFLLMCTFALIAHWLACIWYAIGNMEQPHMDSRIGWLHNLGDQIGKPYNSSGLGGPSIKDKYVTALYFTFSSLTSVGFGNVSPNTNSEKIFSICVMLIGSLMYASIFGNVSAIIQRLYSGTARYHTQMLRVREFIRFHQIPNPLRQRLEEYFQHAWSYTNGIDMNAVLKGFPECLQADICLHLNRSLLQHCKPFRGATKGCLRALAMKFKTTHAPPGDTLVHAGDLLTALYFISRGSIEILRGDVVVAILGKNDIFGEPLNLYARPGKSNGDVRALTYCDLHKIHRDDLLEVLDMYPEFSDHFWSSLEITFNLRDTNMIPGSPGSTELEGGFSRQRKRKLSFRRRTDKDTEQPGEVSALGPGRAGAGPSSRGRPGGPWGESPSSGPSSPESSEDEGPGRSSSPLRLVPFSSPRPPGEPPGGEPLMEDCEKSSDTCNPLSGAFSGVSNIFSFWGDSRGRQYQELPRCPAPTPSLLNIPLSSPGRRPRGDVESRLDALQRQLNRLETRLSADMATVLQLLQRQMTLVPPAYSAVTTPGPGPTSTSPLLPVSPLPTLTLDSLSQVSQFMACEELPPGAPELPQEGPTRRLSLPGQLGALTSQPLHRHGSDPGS

SMILES	hERG current change (%, negative = inhibition) at 10uM
O=C(CNC(=O)C1CCCCC1)NNC(=O)c1ccccc1Br	16.7%
CCN(CC)C(=O)c1sc2c(c1C)c(=O)n(-c1ccc(OC)cc1OC)c(=O)n2CC(=O)c1ccccc1	-12.1%
CCOS(C)(=O)=O	22.4%
Clc1ccc(CNc2cnccn2)cc1Cl	-4.29%
COc1ccc(OC)c(Cc2nnc(CCC(=O)NC(C3CC3)C3CC3)o2)c1	-2.22%
O=C(CCc1c[nH]c2ccccc12)NCCc1ccc(O)cc1	-1.78%
Cc1cccc(N2CCN(C(=O)c3ccc(CS(=O)Cc4cccc(Cl)c4)o3)CC2)c1C (stereo not shown)	-13.5%
CCOCC(=O)Nc1ccc([N+](=O)[O-])cc1OC	-19.4%
O=C(COc1ccc([N+](=O)[O-])cc1)Nc1nnc(-c2cccnc2)s1	-17.6%
NS(=O)(=O)c1ccc(CNC(=S)NCc2ccc(Cl)cc2)cc1	-0.561%
NS(=O)(=O)c1ccc(NC(=O)C(Sc2ccccc2)c2ccccc2)cc1 (stereo not shown)	17.1%
COc1ccc(CNS(=O)(=O)c2c(C(=O)N3CCCCC3)c(C)n(C)c2C)cc1	-0.36%
COC(=O)c1ccc(N2CCN(C)CC2)c(NC(=O)c2ccc(Br)o2)c1	-55.8%
COCCNC(=S)N=Nc1c(O)[nH]c2c(C)cc(C)cc12	10.1%
CC(c1ccccc1)N1CC(C(=O)Nc2nccs2)CC1=O (stereo not shown)	16.6%
CCC(Sc1nc2ccccc2[nH]1)C(=O)Nc1ccc(NC(C)=O)cc1 (stereo not shown)	-7.2%
Cc1ccc2nc(NCc3ccccc3)c(C=O)c(=O)n2c1	10.7%
Cc1ccccc1C(=O)N1CCC(C(=O)Nc2ccc(S(=O)(=O)N(C)C(C)C)cc2)CC1	-38.4%
O=C(Nc1cccc(Cl)c1)N1CCc2ccccc2C1	-10.3%
COc1ccc(NC(=O)NCCCCc2ccccc2)cc1OC	6.28%
CC1=CC2=NC(=O)/C(=C\c3cc(C)n(-c4ccc(F)cc4)c3C)C(=N)N2O1	12.5%
O=C(NCCc1ccncc1)c1ccc2nc(Cc3cccc(Cl)c3)oc2c1	-39.1%

SMILES	hERG current change (%, negative = inhibition) at 10uM
Cc1cc(/C=N/n2cnnc2)c(C)n1-c1ccc(OCc2ccc(Cl)cc2)cc1	-5.72%
CSC1=NC(C(Cl)(Cl)Cl)N=C(c2ccc(C)cc2)N1.Cl (stereo not shown)	-13%
O=C(Nc1ncn[nH]1)c1ccccc1O	4.42%
COc1ccc(-c2nnc(NC(=O)c3ccco3)s2)cc1	25%
COc1ccc(C(=O)Nc2cnc3ccccn3c2=O)cc1	27.7%
Cc1ccc(C(=O)NCCCN2CCN(CCCNC(=O)c3ccc(C)cc3)CC2)cc1	-67.5%
O=C1NC(=O)c2cc(NC(=O)c3cccc4ccccc34)ccc21	7.86%
CCn1c(/C=C2\C(=O)N(C)c3ccccc32)nc2ccccc2c1=O	9.49%
O=[N+]([O-])c1cccc(-c2nc3ccccc3s/c2=N/O)c1	8.61%
N#Cc1nc(Cc2ccccc2)oc1N1CCC(Cc2ccccc2)CC1	24.5%
COc1ccc(N2CCN(C(=O)CCN3C(=O)c4ccccc4S3(=O)=O)CC2)cc1.Cl	-22.1%
O=C(NCc1ccco1)c1ccc(CNc2c(N3CCCCC3)c(=O)c2=O)cc1	1.66%
O=C(O)C/C=C(/NC(=O)OCc1ccccc1)C(=O)OCc1ccccc1	-3.13%
Cc1ccc(S(=O)(=O)CCC(=O)OCC(=O)NNC(=O)c2ccc([N+](=O)[O-])cc2)cc1	-13.5%
O=C(CN1CCc2ccccc2C1)Nc1ccccc1N1CCCCCC1.O=C(O)C(=O)O	-5.79%
CCc1ccc(C(=O)C(C)OC(=O)CNS(=O)(=O)c2ccc(C)cc2)cc1 (stereo not shown)	-11%
Cc1ccc(-c2c(C#N)c(N)nc3c2CCCC3)o1	5.75%
CCOC(=O)C(C)Sc1nnc(CSc2nc3nc(C)cc(C)n3n2)o1 (stereo not shown)	9.3%
C=CCONC(=O)c1cc(OCC(F)(F)F)ccc1OCC(F)(F)F	-22.2%
O=C(c1ccc2c(=O)n(-c3ccccc3)c(=O)[nH]c2c1)N1CCCCC1	4.98%
CC(=O)c1ccc(N(CC(=O)NC2CCCC2)C(=O)CNC(=O)c2ccco2)cc1	4.47%
CCOC(=O)c1sc(N)c(C(=O)Nc2ccccc2)c1C	-11.3%

SMILES	hERG current change (%, negative = inhibition) at 10uM
CCCn1c(C2CCCN2c2nc(C)cs2)nc2cc(Cl)c(Cl)cc21 (stereo not shown)	-46.9%
Cc1cc(SCC(=O)O)nc2ccccc12	26.8%
CCc1ccc(N2C(=O)CN(Cc3cccs3)C2=S)cc1	23.4%
CCC1=NC(c2ccc(Br)cc2)N(O)C1(C)C (stereo not shown)	6.08%
CCOC(=O)N1CCN(S(=O)(=O)N2CCCC(C(=O)NCc3ccc(F)cc3)C2)CC1 (stereo not shown)	-12.5%
COc1ccc(CCC(=O)NCCS(=O)(=O)N2CCN(c3ccc(OC)cc3)CC2)cc1	7.57%
O=C(/C=C/c1ccc(Cl)cc1)NCCCn1ccnc1	-55.8%
Cc1ccc(N2CCN(CCc3ccccc3)CC2)cc1	-36.2%
CCNC(=S)N/N=C/c1ccc(F)cc1	15.9%
COC(=O)c1sc(NC(=O)c2cc3c(s2)CCCC3)nc1C	-3.83%
N#CCC(=O)NNC(=S)Nc1ccccc1C(F)(F)F	13.7%
O=C(c1ccc(N2CCOCC2)cc1)c1cccs1	-13.7%
CCOC(=O)c1cc(C(=O)c2cc(Br)ccc2O)coc1=N	-5.89%
Cc1ccc(S(=O)(=O)N(C)CCCC(=O)N2CCOCC2)cc1	2.06%
COc1ccc(C(=O)N/C(=C\c2cn(C)c3ccccc23)C(=O)NCCCN2CCOCC2)cc1	4.94%
Cc1ccc(S(=O)(=O)N2CN3CCN(C3)C2)cc1	-9.42%
CC(C(=O)NCCN1CCOCC1)(c1ccccc1)c1ccccc1.Cl	-11%
CN(C)S(=O)(=O)c1cccc(NC(=O)c2ccccc2OCc2ccc(F)cc2)c1	2.25%
COc1ccc(/C=C2/SC(=S)N(CCCC(=O)Nc3cccc(O)c3)C2=O)cc1	9.11%
O=C(CN(C(=O)c1csnn1)c1cccc(Cl)c1)NCCc1ccccc1	5.56%
COc1cccc(CN(C)C(=O)CN2C(=O)NC(c3ccccc3)(c3ccccc3)C2=O)c1OC	-8.44%
C[C@H](Nc1ccc(C(F)(F)F)cc1[N+](=O)[O-])C(=O)O.[Cl-]	-1.93%

SMILES	hERG current change (%, negative = inhibition) at 10uM
Cc1ccccc1S(=O)(=O)Cc1ccc(C(=O)NCc2cccs2)o1	-21.7%
Cc1ccc(S(=O)(=O)N2CCCCC2)cc1C(=O)N1CCN(c2ccccn2)CC1	-17.3%
O=C(NCc1ccccn1)c1ccc2c(=O)n3nc(Nc4ccccc4)sc3nc2c1	11.3%
N#CC1=C(N)NC(SCC(=O)c2ccc(Br)cc2)=C(C#N)C12CCCCC2	1.36%
CCc1nnc(NC(=O)CSc2nnc3nc(C)cc(C)n23)s1	10.8%
Cc1ccc(-c2ccc(CCC(=O)O)n2-c2cccc(C(=O)O)c2)cc1	13.8%
Cc1nccn1CC(=O)N/N=C/c1cc(Br)cs1	6.58%
Cc1cccc(N=Nc2ccc(O)c3ncccc23)c1	-8.51%
Cc1nc(NC(=O)CSc2nnnn2C)sc1C	14.3%
Cc1ccc(NC(=O)Cn2cnc3c(cnn3C(C)(C)C)c2=O)cc1	7.16%
COc1ccc2nc(NC(=S)NC(=O)c3ccco3)sc2c1	25.2%
CCOc1ccc(NC(=O)CN(C)CC(=O)NC(C)c2ccccc2)cc1OCC (stereo not shown)	6.58%
COc1ccc(/C=N/NC(=O)CNC(=O)c2ccc3c(c2)OCCO3)cc1OC	6.17%
Cn1c(=O)c(=O)n(C)c2cc(S(=O)(=O)N3CCC(N4CCCCC4)CC3)ccc21	-3.6%
CCCS(=O)(=O)c1nc(S(=O)(=O)c2ccc(C)cc2)c(NCCCN2CCCC2=O)s1	-21.2%
CCCCc1ccc(NC(=O)N[C@H](C(=O)O)C(C)C)cc1	8.46%
CC[C@H](C)[C@H](NC(N)=O)C(=O)NCCc1ccc(Cl)cc1	8.3%
COc1ccc(/C=C2\SC(=O)N(CC(=O)Nc3ccc(O)cc3)C2=O)cc1OC	19.8%
Cc1ccc(C2/C(=C(/O)c3ccccc3)C(=O)C(=O)N2CCN2CCOCC2)o1 (stereo not shown)	-2.22%
CN(C)c1nc(NCc2ccccc2)nc(N/N=C/c2ccc3c(c2)OCO3)n1	8.34%
O=C(c1cccc(Cl)c1)N1CCN(c2ccc(N3CCOCC3)nn2)CC1	-34.8%
CC1CC(C(F)F)n2nc(C(=O)O)cc2N1 (stereo not shown)	-5.09%
